Experimental data: PubChem BioAssay AID686978 (National Center for Advancing Translational Sciences (NCATS), 2013)
Values joined by “and” are separate entries in the source; they are usually repeats but may differ in a detail not shown here. Equal entries are not always repeated. Screen size: about 420,000 compounds; about 64,000 (15%) were called active. This list was built around the results that the source calls inconclusive (neither active nor inactive); the mix of calls is not that of the screen. Calls follow the shape of the dose curve; as a rule, active = well fitted inhibition curve with a large enough effect; inconclusive = small, poorly fitted or top-dose-only effect; inactive = flat fitted curve, though single readings scatter. Potencies of inconclusive entries are doubtful fits and often do not repeat.

Test: qHTS for Inhibitors of human tyrosyl-DNA phosphodiesterase 1 (TDP1): qHTS in cells in absence of CPT; also: nearly all actives have a fitted effect of over 55% in size
Conditions: DT40 Tdp1-/- hTDP1 cells, no CPT, ATP luminescence, 48 h; activity change, negative = growth inhibition: at 46.2 µM (top of the series) unless noted
In short: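 Camptothecin absent (DMSO only). Human TDP1-complemented DT40 knockout cells, 400 cells/well, 37 °C for minimum 48 hr; ATP measured via CellTiter-Glo, 30 min dark incubation, luminescence.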
% is scaled to controls: 0 for no effect and ±100 for the full control effect; potency is read from the fitted curve at half-maximal effect; tags tell the direction and shape of the fitted curve.

| Compound | Potency | activity change, negative = growth inhibition |
| --- | --- | --- |
| Cc1nonc1CC(=O)N1CCc2c([nH]c3ccccc23)C1c1ccccc1F (stereo unspecified) | inconclusive: 20.6 µM [inhibitor, single point] | – |
| Brc1ccccc1C1N=C(c2ccccc2)NO1 (stereo unspecified) | – | inactive: -17.2% |
| COc1cc(Cl)c(C)cc1NC(=O)c1ccc(NS(=O)(=O)c2ccc(F)c(F)c2)cc1 | – | inactive: -9.87% |
| Cc1ccccc1NC(=O)CSc1nc(COc2ccccc2)nc2ccccc12 | – | inactive: -29.6% |
| CC(C)Cc1cc(CNC(=O)C2CCC(=O)N(Cc3cccc(C(F)(F)F)c3)C2)on1 (stereo unspecified) | inconclusive: 23.1 µM [inhibitor, single point] | – |
| Cc1nn(-c2ccccc2)c(N2CCCC2)c1/C=N/NC(=O)c1cccc(S(=O)(=O)Nc2ccc(Cl)cc2)c1 | inconclusive: 29.1 µM [inhibitor, single point] | – |
| CC(C)(C)C(=O)Nc1cc2nn(-c3ccccc3)nc2cc1Cl | – | inactive: -29.9% |
| CN1OC(CC(=O)O)N(c2ccc(Cl)cc2)C1=O (stereo unspecified) | – | inactive: -7.26% |
| CC(Cc1cccnc1)NC(=O)c1cc(COc2ccc(F)cc2Cl)on1 (stereo unspecified) | active: 23.1 µM | – |
| CC1=CC(C)(C)N(S(=O)(=O)c2ccc(C)cc2)c2cc(C)ccc21 | active: 5.17 µM | – |
| CCCCn1c(N)c(N(CC(C)C)C(=O)C2CCN(S(=O)(=O)c3ccc(C)cc3C)CC2)c(=O)[nH]c1=O | – | inactive: -5.98% |
| Cc1ccc(C2CC(c3cccc(C)c3)n3ncnc3N2)cc1 (stereo unspecified) | inconclusive: 18.4 µM [inhibitor, single point] | – |
| Cn1c(NC(=O)c2ccc(C(C)(C)C)cc2)cc(=O)n(C)c1=O | inconclusive: 18.4 µM [inhibitor, single point] | – |
| CSc1ncccc1C(=O)Nc1nc2ccc(F)cc2s1 | – | inactive: -12% |
| O=C(CN(C(=O)c1csnn1)c1ccccc1F)NCc1ccccc1 | – | inactive: -4.53% |
| COc1ccc(Cl)cc1NC(=O)CN(C)C(=O)CN1C(=O)NC2(CCCC2)C1=O | inconclusive: 25.9 µM [inhibitor, single point] | – |
| Cc1cc(=O)n(-c2ccc(O)cc2)[nH]1 | inconclusive: 10.3 µM [inhibitor, partial curve, poor fit] | – |
| COc1ccc(C(=O)N2c3ccccc3C(=O)OC2c2ccc3c(c2)OCO3)cc1 (stereo unspecified) | inconclusive: 29.1 µM [inhibitor, single point] | – |
| CCc1ccc(C(=O)C[N+]2(C)CCOCC2)cc1 | – | inactive: -8.09% |
| Cc1ccc(CN2C(=O)C(Cc3ccccc3)Nc3ncnc(N4CCCCC4)c32)cc1 (stereo unspecified) | inconclusive: 23.1 µM [inhibitor, single point] and inconclusive: 29.1 µM [inhibitor, single point] | – |
| Cc1ccc(CNS(=O)(=O)c2ccc(C(F)(F)F)cc2)n1C | – | inactive: -6.4% |
| O=C(Nc1ccccc1)C1CCCN1S(=O)(=O)c1ccc(Br)cc1 (stereo unspecified) | – | inactive: 8.37% |
| Cn1c(=O)c2c(nc(CN3CCc4ccccc4C3)n2Cc2ccccc2F)n(C)c1=O | active: 6.51 µM | – |

| Compound | Potency | activity change, negative = growth inhibition |
| --- | --- | --- |
| O=C(Nc1ccc(CN2CCCCC2)cc1)c1ccc2c(c1)OCO2 | – | inactive: -3.95% |
| O=C(Nc1cc(Cl)cc(Cl)c1)c1cc(S(=O)(=O)N2CCc3ccccc3C2)ccc1F | inconclusive: 29.1 µM [inhibitor, single point] | – |
| COc1ccc(/C(C)=N/OC/C(O)=C(\C#N)c2nc3ccccc3[nH]2)cc1OC | active: 16.4 µM | – |
| Cn1cccc1-c1nc2ccc(NC(=O)c3ccco3)cc2[nH]1 | inconclusive: 29.1 µM [inhibitor, single point] | – |
| COc1cc2c(cc1OC)CN(CC(=O)Nc1ccccc1C(=O)NCc1ccccc1)CC2 | active: 14.6 µM | – |
| CN(Cc1cn(Cc2ccc(F)cc2)nn1)C1CN(Cc2cn(Cc3ccc(F)cc3)nn2)S(=O)(=O)C1 (stereo unspecified) | – | inactive: -22.4% |
| CCOC(=O)c1c(NC(=O)COC(=O)CCS(=O)(=O)c2ccc(C)cc2)sc(C)c1C | inconclusive: 29.1 µM [inhibitor, single point] | – |
| COc1ccccc1NC(=O)NCC1(N(C)C)CCCCC1 | – | inactive: -19% |
| C/C(=N/N1CCN(Cc2cccc3ccccc23)CC1)c1cccnc1 | inconclusive: 29.1 µM [inhibitor, single point] | – |
| COc1ccc(OC)c(C2C(C(=O)Nc3ccccc3OC)=C(C)Nc3c(C(=O)Nc4ccc(F)cc4)cnn32)c1 (stereo unspecified) | inconclusive: 29.1 µM [inhibitor, single point] | – |
| CC(Nc1ccc(Br)cn1)c1cc(Cl)ccc1O (stereo unspecified) | inconclusive: 29.1 µM [inhibitor, single point] | – |
| O=C(COC(=O)c1ccc(F)cc1Cl)NC1CCCCCCC1 | – | inactive: -21.6% |
| CCOC(=O)c1c(Nc2ccc(Cl)cc2)sc(/C=C2\C=Nc3ccccc32)c1O | inconclusive: 23.1 µM [inhibitor, single point] | – |
| CCOC(=O)c1cc(OCC)c2c(ccc3ccccc32)n1 | inconclusive: 29.1 µM [inhibitor, single point] | – |
| COc1ccc(S(=O)(=O)Nc2cccc3c2O[C@H](CN(C)Cc2ccncc2)[C@@H](C)CN([C@H](C)CO)C3=O)cc1 | inconclusive: 23.1 µM [inhibitor, single point] | – |
| O=C(Nc1ccc(S(=O)(=O)N2CCOCC2)cc1)c1ccccc1Br | inconclusive: 18.4 µM [inhibitor, single point] | – |
| OCCC1CN(Cc2cnc(-c3ccccc3)s2)CCN1C1CCCC1 (stereo unspecified) | – | inactive: -4.18% |
| O=C(O)c1ccc(Nc2nc3ccccc3nc2NS(=O)(=O)c2ccc(F)cc2)cc1 | inconclusive: 32.6 µM [inhibitor, partial curve] | – |
| O=C(c1ccccc1)[C@@H]1[C@@H]2C(=O)N(c3ccc(F)cc3)C(=O)[C@@H]2C2CCCN21 (stereo partly specified) | inconclusive: 25.9 µM [inhibitor, single point] | – |
| COC(=O)c1cc(C(=O)OC)cc(-n2c(C)cc(C(=O)CC#N)c2C)c1 | inconclusive: 22.4 µM [inhibitor, single point] | – |
| COc1ccccc1Cc1c(-c2ccc(OC)c(OC)c2)nc2c(Cl)cc(C(F)(F)F)cn12 | – | inactive: -27.1% |
| Cc1coc2cc3oc(=O)c(CCC(=O)NCC(=O)O)c(C)c3cc12 | – | inactive: 3.45% |
| CCOc1ccc(CN(C)c2nc(-c3cccnc3)nc3ccccc23)cc1OC | inconclusive: 29.1 µM [inhibitor, single point] | – |
